# Laboratory results taken from PubChem BioAssay AID485297 (National Center for Advancing Translational Sciences (NCATS), 2010).
# About 9,100 (2.8%) of roughly 320,000 compounds were called active. This list was built around the results that the source calls inconclusive (neither active nor inactive); the mix of calls is not that of the screen. Calls come from the whole dose curve; as a rule, active = well fitted activation curve with a large enough effect; inconclusive = small, poorly fitted or top-dose-only effect; inactive = no such curve, though single readings can be large or run the other way. Potencies of inconclusive entries are left out as doubtful fits.
# Assay: qHTS Assay for Rab9 Promoter Activators; note: nearly all actives have a fitted effect of over 60% in size
# Settings: Huh7 Rab9 promoter-luciferase reporter, luminescence, 24 h; series mostly up to 9.22 µM
# Method in brief: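 Luminescence from Amplite-detected luciferase (10 minutes, ambient) reports Rab9 promoter activation. Before that, stable Rab9-luciferase Huh7 cells (1500/well, reduced-serum OP-MEM I plus 10% FBS) were exposed to compound for 24 hours at 37C.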
# Potency is the fitted concentration of half-maximal effect; tags give direction and shape of the fitted curve.
row,SMILES,Potency
1,CCOC(=O)c1sc(Nc2ccccc2Cl)nc1C,"inconclusive [activator, single point]"
2,O=C(c1ccc(Br)o1)N1CCc2ccccc21,active: 2.51 µM
3,NC(=O)c1c(NC(=O)c2cccc(N3C(=O)CCC3=O)c2)sc2c1CCCCC2,"inconclusive [activator, single point]"
4,CCOc1ccc(N=C2NN=C(c3cc(C)n(CC4CCCO4)c3C)CS2)cc1 (stereo unspecified),"inconclusive [activator, single point]"
5,O=C(NC(=S)Nc1nc2ccccc2s1)c1ccco1,"inconclusive [activator, single point]"
6,CC(C)c1ccc(/C=N/N2CCN(c3ccccn3)CC2)cc1,"inconclusive [activator, single point]"
7,CS(=O)(=O)c1ccccc1C(=O)Nc1cccc(-c2nc3ccccc3o2)c1,inactive
8,COc1ccc(C(=O)Nc2nccs2)cc1OC,"inconclusive [activator, full curve, poor fit]"
9,O=Cc1ccc(-c2nc3ccccc3s2)o1,"inconclusive [activator, single point]"
10,CC(C)N1CCNCC1,inactive
11,Cc1nc(SCC(=O)c2ccc(F)cc2)n[nH]1,inactive
12,Cc1cc(C2=NNC(=NCCc3ccccc3)SC2)c(C)n1CC1CCCO1 (stereo unspecified),"inconclusive [activator, single point]"
13,COc1ccc2oc(=O)c(-c3nc4ccccc4o3)cc2c1,"inconclusive [activator, partial curve]"
14,COc1ccc(NC(=O)CSc2ccc([N+](=O)[O-])cc2)cc1S(=O)(=O)N1CCOCC1,"inconclusive [activator, single point]"
15,N#Cc1c(-c2ccc(Cl)cc2)ccn2nc(C3CCCCC3)nc12,"inconclusive [activator, partial curve]"
16,COc1cc(OC)cc(C(=O)Nc2nnc(SCC(=O)NCC3CCCO3)s2)c1 (stereo unspecified),inactive
17,COc1ccc(Oc2ccc(C(F)(F)F)cc2N)cc1,"inconclusive [activator, partial curve, poor fit]"
18,O=C(NCCc1c[nH]c2ccccc12)C1CCN(S(=O)(=O)c2ccccc2)CC1,inactive
19,O=C(C1=C(Nc2ccccc2)c2ccccc2S(=O)(=O)N1)c1ccccc1,inactive
20,CC(/C=N/NC(=O)C(O)c1ccccc1)=C\c1ccccc1 (stereo unspecified),"inconclusive [activator, partial curve]"
21,CNc1oc(Cc2cccc3ccccc23)nc1C#N,inactive
